Data: paper PMC12136788
This is one part of the list.

T1: UNK ZnF1-3 (human, UniProt Q9C0B0 31-174)
T1 sequence: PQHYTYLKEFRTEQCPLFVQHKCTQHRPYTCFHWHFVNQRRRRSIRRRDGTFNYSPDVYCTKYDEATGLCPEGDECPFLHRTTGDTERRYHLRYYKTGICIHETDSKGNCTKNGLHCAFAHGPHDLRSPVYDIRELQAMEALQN

B1: chr6:114274515:114274516:-_ENSG00000196591_ENST00000368632|hu_hu|motif|central (ssRNA)
RNA: GGGAGUUCUACAGUCCGACGAUCCAUUACACGAUCUGUUGUAUAAAAAGCUUCUUCAACACCAUCACCAUGAUGAAUAUCGGUAUCAAUAUAUAAGACUCUCUGAUGAUACUUUAGUAAUUCAAGGAUGGCAAGCACAAUAUCCAACAGAGGAUUGAGCAUCA
B2: 154715437_154725196_162_3pUTR_ENSMUSG00000042772_ENSMUST00000043560|mouse|control|control (ssRNA)
RNA: GGGAGUUCUACAGUCCGACGAUCCUGGUACAAGUCCUGCAGAGCUUGCCUGGAUGUCCAGACCUCAGCCGGACCCAGCUUAGAAUCUGUCAUUUCAGCCUUCAGGACUUCUGCCUGCCUAAUAUUACUUGAUUUCAGAUGCUCCAACAGAGGAUUGAGCAUCA
B3: chr2:99204607:99204608:+_ENSG00000040933_ENST00000545415|hu_hu|FALSE|FALSE (ssRNA)
RNA: GGGAGUUCUACAGUCCGACGAUCGGUAGUGUAGAUAGGAUAAUUCACUAGAACCCGUUAUUCUCACUGCAUGAGAUAGUGCUAGCUUCUUUCCCCAAAUAACAUUUAUUGGUAUGCCUAGGAUCCAAUUAUUUAAUUUAUUAUCAACAGAGGAUUGAGCAUCA
B4: chr16:75661828:75661829:-_ENSG00000065427_ENST00000302445|hu_hu|motif|central (ssRNA)
RNA: GGGAGUUCUACAGUCCGACGAUCUAUUAUUUUCUAGACAGAAGUGCCAACUGUUGUGCUUUCCAGUGUAUCAGUGGUUGCGGCAUUCUCCUUCUUGUCUUCGGGUUUCAUGGCAGGAAACAGAAGUACUUCCUUGAUGUUGUUCAACAGAGGAUUGAGCAUCA
B5: chr6:170852807:170852808:-_ENSG00000008018_ENST00000262193|hu_hu|FALSE|FALSE (ssRNA)
RNA: GGGAGUUCUACAGUCCGACGAUCGAUUGUAGACAGCAUUGCAGCAAUUGCCCCCGUAGUCAUGGCCUUAUUAUUGGAAUGCUUAUACAUCUUUAGUCUUGCUUCAAUAAUCUUUGUCAGCGUAAGACAGUCUCCAUGAAAACCCAACAGAGGAUUGAGCAUCA
B6: chr7:148615726:148615727:-_ENSMUSG00000019082_ENSMUST00000106007|mus_hu|FALSE|FALSE (ssRNA)
RNA: GGGAGUUCUACAGUCCGACGAUCUCUGACAUGACAAGACACAAAAAGUUACAACUUCUUAAAACUCUUCAAAAGAAAAAAAUAUAAUUCUGUAAGCAGCAGCAGCAGCUUCCAAGGUUCUGAUGUGACGGGAGGGGCAGCUCCCAACAGAGGAUUGAGCAUCA
B7: 56573591_56581124_1976_CDS_ENSG00000108389_ENST00000323456|human|control|control (ssRNA)
RNA: GGGAGUUCUACAGUCCGACGAUCACAGUGGUUAUUCAGGUUAGGGUCACUGGAUGUACGAGUCAGGGGGCUGCUUGUGUCACAGGCAGAAAGAAGAUCAUCCAUGGAUCUGGUUUUAGGUAAUCUGUCCAGAGAGCGGCCAGACAACAGAGGAUUGAGCAUCA
B8: chr6:170626544:170626545:+_ENSG00000112584_ENST00000537664|hu_hu|FALSE|FALSE (ssRNA)
RNA: GGGAGUUCUACAGUCCGACGAUCAGGGGUACAUCCAGGAUACUUGCUUCGGUGGUGCUCUGCCAGUUCUUUGAAAUUUACUACUGUACAUAUAUGUGGGCAGGUACUUCCCACAAAUCCUUGCAAACCUCUCACACCCAUAACCAACAGAGGAUUGAGCAUCA
B9: chr16:8992458:8992459:-_ENSG00000187555_ENST00000381886|hu_hu|FALSE|FALSE (ssRNA)
RNA: GGGAGUUCUACAGUCCGACGAUCUUGUCUAGGCUUGAAGAACUGUAGAAGAUCUCUUAAAGUACCUUCAUAAUUAUGUCUAAGAGGAUUACCUGGGCCAUCCCUAUAACCUUGAGACUUGAAAAACUGCAGCAACAUUGGAUCCAACAGAGGAUUGAGCAUCA
B10: 18875378_18877974_3791_CDS_ENSG00000157106_ENST00000446231|human|control|control (ssRNA)
RNA: GGGAGUUCUACAGUCCGACGAUCCACCGAUUUGUCAAAGCUGGAGAUGCAGCAAUCAACACCUGUCAUGGCACACAGGUGUUCCUGGUACUCCACAGAGGCCUUUUCAAACCUCCCUUCAGCCUGUUGAGCCACUGAGUUAAUCAACAGAGGAUUGAGCAUCA
B11: 17796332_17796452_737_CDS_ENSG00000078674_ENST00000519253|human|control|control (ssRNA)
RNA: GGGAGUUCUACAGUCCGACGAUCGUCAUUACUUAAAGCAGAAGCAAACAACUCUUUACACUGUGCUGAUCCAAUCGUUUCUCUGUUUGGGGGGUUUGUAGAUGCAUCUUUGCUCUUGUUAGUAUUAAUCUGCAUAGGCAAAAACAACAGAGGAUUGAGCAUCA
B12: chr4:95690885:95690886:+_ENSMUSG00000028572_ENSMUST00000156910|mus_mus|mus_mus_mus_hu_False|8_18 (ssRNA)
RNA: GGGAGUUCUACAGUCCGACGAUCUUUAGAAAAUGUUAAAUACCAUGCUAAAAUAUUUUCAAAGGCUUAUUUUAUUUUACCAGAAGUCACAGGCAAGCAGACACUACAAGAAUAUAUAAAUACAAACCAACAGUGUAUAACUGUCAACAGAGGAUUGAGCAUCA
B13: chr9:42776281:42776282:-_ENSMUSG00000059495_ENSMUST00000165665|mus_hu|FALSE|FALSE (ssRNA)
RNA: GGGAGUUCUACAGUCCGACGAUCUCUUUACCCACUCCCAUCCCACCCUUUCCUUAGCAACCCCCACCCCUGCCACUAUCCGAAGCAUUUCCAUUUGUUUUUACUUCCUGCUCAAUCUGCAGGGACAGUUUUACACAAGUGCCACAACAGAGGAUUGAGCAUCA
B14: 54283497_54285306_744_CDS_ENSG00000091164_ENST00000590954|human|control|control (ssRNA)
RNA: GGGAGUUCUACAGUCCGACGAUCCAUGGAAUAAAGCUUAACAGGUUGAUUGAAUGCCACAGUAAUAAGCAGCUGUUCAUCACAGUCAGAUUCCAAGAAGGUUGUGUCUUUUCGUAAACAGUUGUCAAAUCCAUGCUCAUCACUCAACAGAGGAUUGAGCAUCA
B15: chr2:121837063:121837064:+_ENSMUSG00000033411_ENSMUST00000110578|mus_hu|motif|central (ssRNA)
RNA: GGGAGUUCUACAGUCCGACGAUCAUUAGUCAUUCAUAUAUUCUUAUCUACCCAGUCUCUUGAUUUUUGAAAAGAUUUCACCGGCAGUAGAAUAUUACAGAAACAAAAUAUAAAUGCAUGUCUUUCUAAAUGAAACUUACAUAGCAACAGAGGAUUGAGCAUCA
B16: chr6:56729896:56729897:-_ENSMUSG00000059486_ENSMUST00000114323|mus_hu|FALSE|FALSE (ssRNA)
RNA: GGGAGUUCUACAGUCCGACGAUCCUUAUGCAAAUCAGCUGGUGGGCUACAUAACUUGUAAACUUUUUCUGCUUGGGGGCUGUAACAGACAGAAGAGUAAAGACUACAAGGAUUUUCUGAAGAUGCUUCAAUGAAAAUCAUCAUCAACAGAGGAUUGAGCAUCA
B17: chr17:60770872:60770873:+_ENSG00000011028_ENST00000303375|hu_hu|hu_hu_hu_mus_True|8_108 (ssRNA)
RNA: GGGAGUUCUACAGUCCGACGAUCUCUCUUUUCUUUUAAAAAAAAAGACAAACAAUAAUAGCACAUUUCGAGAAUCAAGAACUACAAUAGAGGGUCCGCUUUGAGUUUUUGUUCACAUCGUCCUGCAACGCUGUCGCGGGACUGCAACAGAGGAUUGAGCAUCA
B18: 23048695_23050092_2042_3pUTR_ENSMUSG00000026775_ENSMUST00000028117|mouse|control|control (ssRNA)
RNA: GGGAGUUCUACAGUCCGACGAUCGCAAGCAGCUGGGCUCGAGUUUCAUUCCAUCUGUCAUUCUCAGGCAACAGUGAUACAUGCCCAAGUGUUGGCCCUCGAGGCAUGAUUGUAGCUUUAUUAAUUGGCAUUGCAUCCUUUGUGCAACAGAGGAUUGAGCAUCA
B19: chr12:48362563:48362564:+_ENSG00000134291_ENST00000256686|hu_hu|hu_hu_hu_mus_False|1_38 (ssRNA)
RNA: GGGAGUUCUACAGUCCGACGAUCUCCGUCAAGCCCUUCGAUAGACCCUUGCGGGGGAAACUGUAAUCACUUUGUAUGGGGAAGGAAAAGAAACGCCAACACACUUUCAAAAAGCGGGGGUGGGGUGAGGCGGGAGGUUGGGAACAACAGAGGAUUGAGCAUCA
B20: 427339_427459_3132_3pUTR_ENSG00000073614_ENST00000399788|human|control|control (ssRNA)
RNA: GGGAGUUCUACAGUCCGACGAUCAGCCAUUGCUUUCUCCACAGCAUGGUGGGGUGCCAACCCUACCCCAGAGUCUAUCAGCUUCUUCAUGACAUCCAAAGUGACUUGUUGCGGAUCUGAUAAGGUCAGUCUUACUUCGUCCAACAACAGAGGAUUGAGCAUCA
B21: chr12:16048344:16048345:+_ENSG00000023734_ENST00000419869|hu_hu|hu_hu_hu_mus_True|38_58 (ssRNA)
RNA: GGGAGUUCUACAGUCCGACGAUCAGAUCGUCCAUAAGUAAUAACCAAAAUCUCUCCUUCAGGAAUAUACUCCAUGCUACUAACAGACAUAUUAAAAUUUAGAGAUUUCACUUCUGUCAUUGUGGCAUGAUCCCAGAGCCGAACCAACAGAGGAUUGAGCAUCA
B22: 150239348_150240437_424_3pUTR_ENSMUSG00000028967_ENSMUST00000030811|mouse|control|control (ssRNA)
RNA: GGGAGUUCUACAGUCCGACGAUCCGAGCAGCACAUCCAACAGUUGUUAGGUGCUCCUGAGCAGGGGAGUUCAGAUUGUAGGCCAUGGUUAUUGGAUCAAUAUUUAAAAAGUUAUUUUCAAACUCACUGUGACUGCCCCAGCAGCAACAGAGGAUUGAGCAUCA

target: T1, UNK ZnF1-3; experiment: nsRBNS (natural sequence RNA bind-n-seq); RBNS binding buffer (assumed for nsRBNS): 25 mM Tris pH 7.5, 150 mM KCl, 3 mM MgCl2, 0.01% Triton X-100, 500 ug/ml BSA, 20 U/ml SUPERase-In, 4 C; UNK is unkempt and MSI1 is Musashi-1; names of the RNAs are library labels; protein concentration not given here; high values mean tight binding

Binder | binding signal [enrichment R]
B1 | 1.23
B2 | 0.456
B3 | 0.586
B4 | 0.512
B5 | 1.17
B6 | 1.42
B7 | 1.25
B8 | 1.12
B9 | 1.88
B10 | 0.975
B11 | 1.04
B12 | 1.83
B13 | 0.75
B14 | 1.08
B15 | 1.13
B16 | 1.15
B17 | 0.832
B18 | 0.701
B19 | 2.28
B20 | 0.966
B21 | 0.993
B22 | 1.62
